The campaign covered roughly 310,000 compounds. About 2,200 (0.71%) showed an effect of 50% or more. The effect is printed as a negative number. The list shows a part of the results.
molecular target: human ether-à-go-go-related gene (hERG) potassium channel (human, UniProt Q12809); assay: primary screen, population patch clamp on CHO cells stably expressing hERG
Sequence (Q12809 whole entry, looked up): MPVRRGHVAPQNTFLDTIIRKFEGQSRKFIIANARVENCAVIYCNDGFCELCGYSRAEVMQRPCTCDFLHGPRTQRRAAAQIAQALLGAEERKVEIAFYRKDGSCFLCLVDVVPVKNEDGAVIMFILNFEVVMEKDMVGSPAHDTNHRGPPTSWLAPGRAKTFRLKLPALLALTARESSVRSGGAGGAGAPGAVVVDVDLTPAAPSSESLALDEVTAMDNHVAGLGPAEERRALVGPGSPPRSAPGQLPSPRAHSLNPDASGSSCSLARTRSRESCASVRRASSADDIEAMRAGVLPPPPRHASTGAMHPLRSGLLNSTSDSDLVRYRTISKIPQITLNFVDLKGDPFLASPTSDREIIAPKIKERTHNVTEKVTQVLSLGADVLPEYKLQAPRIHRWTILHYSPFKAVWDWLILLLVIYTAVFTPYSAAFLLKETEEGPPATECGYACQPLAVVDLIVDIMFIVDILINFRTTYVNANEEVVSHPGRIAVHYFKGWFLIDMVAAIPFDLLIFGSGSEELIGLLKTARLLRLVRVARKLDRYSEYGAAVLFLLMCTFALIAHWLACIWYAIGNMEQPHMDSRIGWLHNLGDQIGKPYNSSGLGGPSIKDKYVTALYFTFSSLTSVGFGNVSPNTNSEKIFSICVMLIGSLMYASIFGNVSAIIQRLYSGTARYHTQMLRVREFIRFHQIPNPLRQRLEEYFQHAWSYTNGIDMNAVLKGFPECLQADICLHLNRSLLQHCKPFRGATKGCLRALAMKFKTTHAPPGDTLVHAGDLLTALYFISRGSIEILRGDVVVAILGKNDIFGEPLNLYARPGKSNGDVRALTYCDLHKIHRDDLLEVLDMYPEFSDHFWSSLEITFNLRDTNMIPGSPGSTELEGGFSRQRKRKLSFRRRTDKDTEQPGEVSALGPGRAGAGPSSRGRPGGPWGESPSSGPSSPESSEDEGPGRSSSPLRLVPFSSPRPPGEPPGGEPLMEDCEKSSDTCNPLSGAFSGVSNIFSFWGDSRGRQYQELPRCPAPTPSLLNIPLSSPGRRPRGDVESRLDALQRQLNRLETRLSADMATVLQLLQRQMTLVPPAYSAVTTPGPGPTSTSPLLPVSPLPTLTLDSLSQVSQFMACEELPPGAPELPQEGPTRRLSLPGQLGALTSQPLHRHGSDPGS

Row | SMILES | hERG current change (%, negative = inhibition) at 1uM [%]
1 | N=C1C(=O)OCC1c1ccccc1NC(=O)Nc1ccccc1 (centres unmarked) | 18.4
2 | O=C(c1cccs1)N1CCN(c2nc3c(F)cc(F)cc3s2)CC1 | -1.62
3 | C=CCNC(=O)CSc1nc2sc(C)c(C)c2c(=O)[nH]1 | 12.4
4 | C/C(=N\Nc1ccc([N+](=O)[O-])cc1)c1ccc(-n2nncc2C(C)(C)C)cc1 | 1.42
5 | Cc1ccc(C(=O)NC(=S)Nc2ccccc2N2CCOCC2)cc1C | 5.97
6 | CCc1n[nH]c(=S)n1/N=C/c1c(C)nn(-c2ccccc2)c1Cl | 13.3
7 | O=C(CSc1nnc(-c2ccco2)o1)Nc1ccccc1Cl | 11.7
8 | CC(=O)OCC1=C(C(=O)O)N2C(=O)C(NC(=O)CCn3nc(C)c(Cl)c3C)C2SC1 (centres unmarked) | 7.84
9 | CCOC(=O)C1=C(C)Nc2nc(C)nn2C1c1ccc(OC)c(OC)c1 (centres unmarked) | 11.4
10 | CC(=O)c1ccc(NC(=O)C2CCCN(c3ncnc4c3nc3n4CCCCC3)C2)cc1 (centres unmarked) | 3.39
11 | O=C(NC1CCCCCC1)C1CCN(C(=O)c2ccc(Cl)cc2)CC1 | 2.62
12 | O=C(Nc1ccc2ccccc2c1)c1onc2c1CCCC2 | 7.65
13 | Cn1c(=O)[nH]c(NCCc2ccc(O)cc2)c([N+](=O)[O-])c1=O | 10.6
14 | O=C(CSc1cn(CCNC(=O)c2c(F)cccc2F)c2ccccc12)NCC1CCCO1 (centres unmarked) | 13.4
15 | CC1(NC(=O)c2cc(S(=O)(=O)N3CCCCC3)ccc2Cl)CCS(=O)(=O)C1 (centres unmarked) | 3.68
16 | COc1ccc2[nH]cc(/C=C/C(=O)c3ccccc3)c2c1 | 15
17 | O=C(NC(=S)Nc1ccc2[nH]c(=O)[nH]c2c1)c1cccc(F)c1 | 13.9
18 | Cc1ccc(CNC(=O)CNC(=O)[C@@H]2Cc3ccccc3CN2)cc1 | 10.8
19 | CC1CN(O)C2CCc3nonc3C12O (centres unmarked) | 0.83
20 | CCOc1ccccc1N(CC(=O)N1CCC(C)CC1)S(=O)(=O)c1ccc(C)cc1 | 6.58
21 | Nc1nc(CN2CCN(c3cccc(Cl)c3)CC2)nc(N2CCCc3ccccc32)n1 | 6.42
22 | CC(=O)n1c(-c2ccccc2)c(-c2ccccc2)n(C)c1=O | 7.26
23 | Cn1nc(CC(=O)NC2CCCCCC2)c2ccccc2c1=O | 2.98

Row | SMILES | hERG current change (%, negative = inhibition) at 1uM [%]
24 | Cl.O=C(CN1CCCC1)Nc1ccc(Br)cc1 | 14.6
25 | C=CCNC(=S)Nc1ccc2nc(C)c(C)nc2c1 | 12.1
26 | O=C(Cn1nc(-c2cccc(Cl)c2)ccc1=O)Nc1ccc(C(=O)NC2CC2)cc1 | 14.7
27 | CN(C)c1ccc(C(CNS(=O)(=O)c2ccc(F)cc2)c2c[nH]c3ccccc23)cc1 (centres unmarked) | 11.7
28 | COC(=O)c1ccc(CNC(=O)CNc2cc(C(F)(F)F)ccc2N2CCOCC2)cc1 | 9.39
29 | CCSc1ccccc1C(=O)Nc1cccnc1 | 3.42
30 | CCCCc1c(O)nc(SCC(=O)NC(C)(C)C)n(-c2ccccc2C)c1=O | 11.6
31 | Cc1cc(OCc2cc(C(=O)N3CCN(C)C(=O)[C@@H]3C)no2)cc(C)c1Cl | -0.0845
32 | Cc1ccc(-c2nn(CC(=O)NC(C)c3ccccc3)c(=O)c3ccccc23)cc1 (centres unmarked) | 20
33 | CC1(C)Nc2ccccc2N(Cc2ccc([N+](=O)[O-])cc2)C1=O | -4.68
34 | O=C(Nc1c(C(=O)Nc2ccc3c(c2)OCCO3)cnn1-c1ccccc1Cl)c1ccco1 | 18.2
35 | O=C(O)CCCC(=O)NCc1c(Cl)cccc1Sc1ccc(Cl)cc1 | 11.4
36 | Cc1c(C(C)C)c(=O)n(-c2ccc(S(=O)(=O)NC3CCCCC3)cc2)n1C | 13.6
37 | O=C(O)C(=O)O.OCCNCCCCOc1ccc(OCc2ccccc2)cc1 | 5.2
38 | COc1cc(/C=C(/C#N)C(=O)Nc2ccc(Cl)cc2)ccc1Oc1nc(Cl)ncc1F | 16.8
39 | COc1ccc(NC(=O)Nc2c(C)n(C)n(-c3ccccc3)c2=O)cc1 | -2.44
40 | O=C(NCCCCNC(=O)c1ccc(Br)cc1)c1ccc(Br)cc1 | 11.5
41 | C[C@H](NC(=O)C1CCN(S(=O)(=O)c2ccccc2)CC1)C(=O)NCc1cccc(Cl)c1 | 11.7
42 | CCn1cc(/C=C(\NC(=O)c2ccc(OC)c(OC)c2)C(=O)N2CCOCC2)c2ccccc21 | 13.3
43 | COc1nccnc1NS(=O)(=O)c1ccc(NC(=O)c2ccc(F)cc2)cc1 | 6.32
44 | C/C(=N\Nc1nc(C(=O)O)cs1)c1ccccc1 | 13.7
45 | COc1ccc(CCNS(=O)(=O)c2c(N)n(C)c(=O)n(C)c2=O)cc1OC | 8.49
46 | COc1ccc(C(=O)Nc2ccnn2C2CCN(C3CCC3)CC2)cc1 | 22.3

Row | SMILES | hERG current change (%, negative = inhibition) at 1uM [%]
47 | CCOc1ccc(OCCC(=O)OCC(=O)Nc2ccc3c(c2)OCO3)cc1 | 7.33
48 | Cc1nn(Cc2ccccc2)c(C)c1N | 3.73
49 | COc1ccc(/C=C/C(=O)Nc2ccc(NC(C)=O)cc2)cc1S(=O)(=O)N1CCOCC1 | 5.62
50 | O=C(NC1c2ccccc2-c2ccccc21)c1ccccc1 | 2.33
51 | Cc1ccc(S(=O)(=O)N(C)C)cc1NC(=O)c1sccc1Cl | 14.9
52 | C=CCn1c(=O)c2ccccc2n2c(SCc3nnc(-c4ccccc4Br)o3)nnc12 | -2.45
53 | CCc1nn(CC(=O)O)c(=O)c2ccccc12 | 12.9
54 | N#Cc1c(-c2ccccc2Cl)c2c([nH]c1=O)-c1ccccc1OC2 | 12.7
55 | CCCn1c2ccccc2c2cnn(CC(=O)N3CCN(C4CCCCC4)CC3)c(=O)c21 | -68.5
56 | Cc1ccc(-c2csc(NC(=O)CN3CCC(C(N)=O)CC3)n2)cc1 | 16
57 | CCOC(=O)c1oc2cccc(O)c2c1CN1CCOCC1.Cl | 3.38
58 | COc1ccc(/C(N)=N/OC(=O)CCC2CCCC2)cc1 | 41.6
59 | CCc1ccc(OCCNC(=O)c2cc(SC)ccc2Cl)cc1 | -0.451
60 | COc1ccccc1/C=C/CN1CCN(Cc2ccc(C)o2)C(CCO)C1 (centres unmarked) | 8.14
61 | O=[N+]([O-])c1ccc(N2CCN(c3ccccc3F)CC2)c(S(=O)(=O)N2CCOCC2)c1 | 11.6
62 | COc1ccc(-c2nc(CN3CCN(c4ncccn4)CC3)c(C)o2)cc1C | 4.08
63 | O=C(CSc1nnnn1C1CCCCC1)Nc1ccc(F)cc1 | 9.34
64 | Cn1c(O)c(N=NC(=O)CNC(=O)c2ccccc2)c2ccccc21 | 8.62
65 | OC1CCN(CC(O)C(F)(F)F)CC1 (centres unmarked) | 11.9
66 | Cc1cc(C)c2[nH]c(=O)c(CN(Cc3cccs3)C(=S)NCC3CCCO3)cc2c1 (centres unmarked) | 6.49
67 | COc1cccc(N2C(=O)CC(N3CCN(S(=O)(=O)c4ccccc4)CC3)C2=O)c1 (centres unmarked) | 13.7
68 | COc1ccc(Cc2nnc(NC(=O)c3ccccc3[N+](=O)[O-])s2)cc1 | 13.4
69 | O=C(NCc1ccccn1)/C(=C/c1ccco1)NC(=O)c1ccccc1 | 8.44

Row | SMILES | hERG current change (%, negative = inhibition) at 1uM [%]
70 | COc1cc(OC)cc(-c2cc(N)n(S(=O)(=O)c3cccc4nsnc34)n2)c1 | 8.61
71 | O=C(O)c1cc(C(=O)C2CCCCC2)c[nH]1 | 18.7
72 | C/C=C/Cn1c(SCc2ccc(C)cc2)nc2c1c(=O)[nH]c(=O)n2C | 1.64
73 | CC1CCC2CCCCC2N1C(=O)c1cc([N+](=O)[O-])cc([N+](=O)[O-])c1 (centres unmarked) | 12.8
74 | O=C(CN1CCN(c2ccccn2)CC1)N1CC(O)CO1 (centres unmarked) | 14
75 | CCOC(=O)c1c2c(c(=S)n(-c3ccccc3)c1N)CCC2 | 14.7
76 | CCOc1ccc(C2C3=C(CCCC3=O)OC(N)=C2[N+](=O)[O-])cc1 (centres unmarked) | 20.5
77 | COCCNC(=O)CSc1nc2ccccc2c2nc(C)nn12 | -1.01
78 | NC(=O)C1CCN(CC(=O)NC2CCCc3ccccc32)CC1 (centres unmarked) | 14.4
79 | NNC(=O)CCn1nnc2ccccc21 | 12.8
80 | O=C(NCCN1C(=O)S/C(=C\c2ccc(Cl)c(Cl)c2)C1=O)c1ccc2c(c1)C(=O)N(Cc1ccncc1)C2=O | 15.7
81 | O=C(Nc1cccc(Cl)c1)Nc1ccccc1NS(=O)(=O)c1cccs1 | 13.3
82 | Cc1ccc(N2CC(C(=O)NC3CCC(C)CC3)CC2=O)cc1 (centres unmarked) | 7.43
83 | O=C(O)Cc1ccc(NC(=O)Nc2cccc(Cl)c2)cc1 | 10.1
84 | CCNCCNc1ccc([N+](=O)[O-])c2cccnc12 | 0.729
85 | Cc1cc(=O)oc2cc(O)ccc12 | 19.1
86 | O=C(Cn1cccc1C(=O)c1ccccc1)NCc1cccs1 | 13.1
87 | CCc1n[nH]c(=S)n1/N=C/c1cc(Br)c(OC)cc1OC | 26.3
88 | NS(=O)(=O)c1cccc(NC(=O)CCSc2ccc(Cl)cc2)c1 | 11.8
89 | O=C(N1CCCCC1)C12CC3CC(CC(C3)C1)C2 | 11.7

— paper PMC4336329 (PLoS ONE, 2015)
